Laboratory results taken from PubChem BioAssay AID504332 (National Center for Advancing Translational Sciences (NCATS), 2011).
The whole screen tested about 350,000 compounds, of which about 31,000 (8.9%) were called active. The inconclusive results got no clear call from the source; some entries with a clear call stand among them for comparison. Calls follow the shape of the dose curve; as a rule, active = well fitted inhibition curve with a large enough effect; inconclusive = small, poorly fitted or top-dose-only effect; inactive = no such curve, though single readings can be large or run the other way. A potency beside an inconclusive call is a rough fit, not a confirmed value.

target: Histone-lysine N-methyltransferase EHMT2 (Homo sapiens) (UniProt Q96KQ7); experiment: qHTS Assay for Inhibitors of Histone Lysine Methyltransferase G9a; details: G9a H3K9 monomethylation, AlphaScreen, 2 h; activity, negative = inhibition: at 59 µM (top of the series) unless noted; also: nearly all actives have a fitted effect of over 75% in size
In short: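 Signal arises when biotinylated H3K9 peptide, once monomethylated, bridges streptavidin donor and antibody-captured acceptor beads. Enzyme at 20 nM was preincubated 15 min with test compounds; peptide 500 nM and SAM 20 uM then reacted for 2 h.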
% is scaled to controls: 0 for no effect and ±100 for the full control effect; potency is read from the fitted curve at half-maximal effect; tags tell the direction and shape of the fitted curve.

Chain of UniProt Q96KQ7 (Q96KQ7 whole entry, looked up): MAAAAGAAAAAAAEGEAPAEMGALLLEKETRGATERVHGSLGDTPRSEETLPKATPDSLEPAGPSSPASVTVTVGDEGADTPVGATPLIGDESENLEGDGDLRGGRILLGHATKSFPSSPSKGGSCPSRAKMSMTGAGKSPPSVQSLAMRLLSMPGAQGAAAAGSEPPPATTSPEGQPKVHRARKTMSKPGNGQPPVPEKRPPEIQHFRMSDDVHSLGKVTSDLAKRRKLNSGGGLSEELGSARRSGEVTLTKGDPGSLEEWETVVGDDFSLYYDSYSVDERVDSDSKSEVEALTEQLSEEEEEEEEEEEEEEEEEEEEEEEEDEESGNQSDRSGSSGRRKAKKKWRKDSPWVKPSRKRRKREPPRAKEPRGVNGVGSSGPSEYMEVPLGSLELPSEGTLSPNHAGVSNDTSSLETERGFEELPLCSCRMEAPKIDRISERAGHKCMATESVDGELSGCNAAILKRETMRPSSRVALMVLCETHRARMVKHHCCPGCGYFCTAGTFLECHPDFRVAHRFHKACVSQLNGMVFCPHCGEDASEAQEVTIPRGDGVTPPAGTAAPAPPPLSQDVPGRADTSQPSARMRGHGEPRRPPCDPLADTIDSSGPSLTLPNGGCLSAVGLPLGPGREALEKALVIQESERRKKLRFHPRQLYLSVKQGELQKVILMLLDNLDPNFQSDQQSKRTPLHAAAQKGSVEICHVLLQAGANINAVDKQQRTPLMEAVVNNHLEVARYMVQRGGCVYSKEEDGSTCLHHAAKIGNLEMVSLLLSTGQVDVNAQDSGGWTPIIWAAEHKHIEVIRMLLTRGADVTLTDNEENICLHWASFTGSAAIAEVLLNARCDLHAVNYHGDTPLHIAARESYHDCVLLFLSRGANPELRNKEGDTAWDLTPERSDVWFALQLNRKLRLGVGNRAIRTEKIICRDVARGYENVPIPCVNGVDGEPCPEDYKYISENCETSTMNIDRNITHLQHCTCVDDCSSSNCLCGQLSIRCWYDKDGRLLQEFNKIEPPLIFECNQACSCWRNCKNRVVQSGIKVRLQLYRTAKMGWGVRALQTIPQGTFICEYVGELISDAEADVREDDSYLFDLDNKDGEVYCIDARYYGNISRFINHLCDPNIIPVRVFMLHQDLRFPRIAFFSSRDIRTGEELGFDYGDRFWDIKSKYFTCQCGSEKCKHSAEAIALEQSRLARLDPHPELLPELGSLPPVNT

Q: With Cc1cccc(-c2c3c(=O)n(C)c(=O)n(C)c3c3cnc4ccccc4n23)c1 as the compound, how does the Potency read?
A: inactive

Q: With O=C(NCC1CCCO1)C1CCCN(S(=O)(=O)c2ccc(Cl)cc2)C1 (configuration not stated) as the compound, how does the Potency read?
A: inactive

Q: Cc1csc(=O)n1CC(=O)OCC(=O)Nc1ccc(F)c(F)c1 was tested. Which Potency did it give?
A: inactive

Q: With Cc1ccc(C)c(-n2c(-c3csc(C)c3)n[nH]c2=S)c1 as the compound, how does the Potency read?
A: active: 0.282 µM

Q: How did the Potency turn out when CCN(CC)CCNCc1ccc(OCc2ccc(Cl)nc2)c(OC)c1 was run?
A: inconclusive: 63.1 µM [inhibitor, partial curve, poor fit]

Q: For COc1cc(CCC(=O)Nc2sccc2C#N)cc(OC)c1OC, which Potency is on record?
A: inactive

Q: With CC(C)C(=O)Nc1cccc(NC(=O)c2ccc(Cl)cc2Cl)c1 as the compound, how does the Potency read?
A: inactive

Q: O=C(Nc1ccc2c(c1)nc1n2CCSC1)c1ccco1 was tested. Which Potency did it give?
A: inconclusive: 2 µM [inhibitor, full curve, poor fit]

Q: How did the Potency turn out when Cc1cc(C)c(NC(=O)Cn2nnc(-c3nc(-c4ccccc4)no3)c2N)c(C)c1 was run?
A: inconclusive: 5.62 µM [inhibitor, partial curve, poor fit]

Q: How did the Potency turn out when COc1ccc(C(=O)c2c(C)oc3ccc(O)c(CN4CCOCC4)c23)cc1 was run?
A: active: 44.7 µM

Q: COc1ccc(-c2csc(Nc3ccccn3)n2)cc1 was tested. Which Potency did it give?
A: inconclusive: 39.8 µM [inhibitor, single point]

Q: For FC(F)(F)c1cccc(-c2cc(C3CCNCC3)[nH]n2)c1, which Potency is on record?
A: inconclusive: 79.4 µM [inhibitor, single point]

Q: How did the Potency turn out when COCCn1c(C)cc2c(c1=O)C(c1ccco1)C(C#N)=C(N)O2 (configuration not stated) was run?
A: inactive

Q: With CCN1/C(=C/c2ccc3cc(C)ccc3[n+]2CC)Sc2cc(C)ccc21 as the compound, how does the Potency read?
A: active: 22.4 µM

Q: How did the activity, negative = inhibition turn out when COCCn1c(=O)c(-c2cn(C)c3ccccc23)nc2cnc(Oc3cccc(Cl)c3)nc21 was run?
A: inactive: 12.1% [at 0.501 µM]

Q: For CC1CCN(C(=O)C2CCN(C(=O)c3cc4sccc4n3Cc3ccc(F)cc3)CC2)CC1, which Potency is on record?
A: inconclusive: 89.1 µM [inhibitor, single point]

Q: Which Potency does the source give for CCOC(=O)c1ccc(NC(=O)c2ccc(C)c(S(=O)(=O)N3CCOCC3)c2)cc1 here?
A: inactive

Q: Which Potency does the source give for CS(=O)(=O)c1ccc(Cl)c(NC(=O)C2CC(=O)N(Cc3ccccc3)C2)c1 (configuration not stated) here?
A: inactive

Q: How did the Potency turn out when COc1ccc(C2C(C(C)=O)=C(O)C(=O)N2c2nc3ccccc3s2)cc1OC (configuration not stated) was run?
A: active: 50.1 µM

Q: Which Potency does the source give for CNc1nc2c3ccccc3n(C(C)=O)c2s1 here?
A: inconclusive: 89.1 µM [inhibitor, single point]

Q: COc1ccccc1NC(=O)C1CCN(c2cnccn2)CC1 was tested. Which Potency did it give?
A: inactive

Q: CC(C)C(=O)Nc1cccc(C(=O)Nc2ccc(S(=O)(=O)Nc3nccs3)cc2)c1 was tested. Which Potency did it give?
A: inactive

Q: For O=C1c2ccccc2C(=O)c2c(O)c(O)cc(O)c21, which activity, negative = inhibition is on record?
A: inconclusive: -112% [inhibitor] [at 2.33 µM]

Q: For Oc1ccc(N2CCN(c3ncnc4sc(-c5ccccc5)cc34)CC2)cc1, which Potency is on record?
A: active: 3.16 µM

Q: CSc1ccccc1C(=O)NC1CCCN(Cc2ccccc2F)C1 (configuration not stated) was tested. Which Potency did it give?
A: active: 10 µM

Q: With COc1cccc(-n2ccnc2SCC(=O)NCc2ccccc2)c1 as the compound, how does the Potency read?
A: inconclusive: 50.1 µM [inhibitor, partial curve, poor fit]

Q: Which Potency does the source give for O=C(CSc1ncnc2nc[nH]c12)N1CCN(c2ccc(Cl)cc2)CC1 here?
A: inconclusive: 79.4 µM [inhibitor, single point]

Q: With Cc1[nH]n(-c2ccccc2)c(=O)c1N=Nc1ccccc1C(=O)O as the compound, how does the Potency read?
A: inconclusive: 79.4 µM [inhibitor, single point]

Q: CCCC1(C(=O)O)NC(c2ccccc2O)C2C(=O)N(Cc3ccccc3)C(=O)C21 (configuration not stated) was tested. Which Potency did it give?
A: inconclusive: 100 µM [inhibitor, single point]

Q: For Cc1cc(C)cc(-n2ccn(CC(=O)Nc3ccccc3F)c(=O)c2=O)c1, which Potency is on record?
A: inconclusive: 10 µM [inhibitor, partial curve, poor fit]

Q: Which Potency does the source give for Cc1cc(C)c(C(=O)COc2cccnc2[N+](=O)[O-])cc1C here?
A: active: 7.08 µM

Q: Which Potency does the source give for CCCS(=O)(=O)N1CCC(C(=O)NCCC(C)C)CC1 here?
A: inactive

Q: For CCN1CCN(C(=O)C2CC(=O)N(c3ccc(Cl)cc3)C2)CC1 (configuration not stated), which Potency is on record?
A: inconclusive: 70.8 µM [inhibitor, single point]

Q: For CN(C)CCNC(=O)c1sc2cccc(F)c2c1Cl, which Potency is on record?
A: inconclusive: 44.7 µM [inhibitor, partial curve]

Q: Which Potency does the source give for O=C(NC1=NCCS1)c1ccc(Cl)c(S(=O)(=O)N2CCCCCC2)c1 here?
A: inactive

Q: With COC1C=CC23c4cc5c(cc4CN(CC2O)C3C1)OCO5 (configuration not stated) as the compound, how does the activity, negative = inhibition read?
A: inactive: -25% [at 2.33 µM]

Q: With OC1CCCN(CC(O)COC(c2ccc(F)cc2)c2ccc(F)cc2)C1 (configuration not stated) as the compound, how does the Potency read?
A: active: 44.7 µM

Q: With CC(OC(=O)CCCN=C1NS(=O)(=O)c2ccccc21)C(=O)N(C)c1ccccc1 (configuration not stated) as the compound, how does the Potency read?
A: active: 39.8 µM

Q: CCc1ccc(N(CC(=O)NC2CCCC2)C(=O)CCC(=O)Nc2ccccn2)cc1 was tested. Which Potency did it give?
A: inactive

Q: Which Potency does the source give for COc1ccc(S(=O)(=O)N2CCc3ccccc32)cc1C(=O)OCc1nnc(-c2ccccc2)o1 here?
A: inconclusive: 10 µM [inhibitor, partial curve, poor fit]

Q: How did the Potency turn out when CC(C)CCn1c(=S)[nH]c2ncccc2c1=O was run?
A: inactive

Q: Which activity, negative = inhibition does the source give for COc1cc(OC)cc(C(=O)NCc2n[nH]c(=S)n2-c2ccccc2)c1 here?
A: inactive: 7.28% [at 0.0925 µM]

Q: For Nc1nc(SCC(=O)N2CCN(c3ccc(F)cc3)CC2)n[nH]1, which Potency is on record?
A: inactive

Q: How did the Potency turn out when COCCN(C(=O)COC(=O)CCc1ccccc1OC)c1c(N)n(Cc2ccccc2)c(=O)[nH]c1=O was run?
A: active: 12.6 µM

Q: For Cc1ccc2oc(-c3ccc(Cl)c(NC(=O)c4ccc(OC(C)C)cc4)c3)nc2c1, which Potency is on record?
A: inactive

Q: For CC(=O)C(C)Oc1ccc2c3c(c(=O)oc2c1)CCCC3 (configuration not stated), which Potency is on record?
A: inactive

Q: Which Potency does the source give for CCC1(C)CC(=O)N(c2ccc(C(=O)O)c(O)c2)C1=O (configuration not stated) here?
A: active: 50.1 µM

Q: Which Potency does the source give for C[C@H](N)c1nnc(SCC(=O)N(C)C)o1 here?
A: active: 8.91 µM

Q: How did the Potency turn out when C=CCn1c(=N)n(CC(O)COc2ccc(OC)cc2)c2ccccc21 (configuration not stated) was run?
A: inconclusive: 79.4 µM [inhibitor, single point]

Q: For CCOC(=O)c1ccc(NC(=O)CSc2nc3c([nH]c4ccccc43)c(=O)n2C)cc1, which Potency is on record?
A: inactive

Q: For Cc1cn2c(=O)cc(COc3ccccc3NC(=O)c3ccc(Cl)cc3)nc2s1, which Potency is on record?
A: inactive

Q: How did the Potency turn out when CN(CC(=O)Nc1ccccc1C(F)(F)F)C(=O)COc1ncnc2sccc12 was run?
A: inconclusive: 79.4 µM [inhibitor, single point]

Q: CO/N=C/C(C#N)=C/c1cc(C(=O)c2ccc(F)cc2)cn1C was tested. Which Potency did it give?
A: inactive

Q: For COc1ccc(C(=O)NC(=S)NNC(=O)c2c(-c3ccccc3)noc2C)cc1OC, which Potency is on record?
A: active: 31.6 µM

Q: Which Potency does the source give for Cc1ccc(S(=O)(=O)N(CC(=O)Nc2ccc3c(c2)OCO3)c2ccc(C)c(Cl)c2)cc1 here?
A: inactive

Q: Which Potency does the source give for c1cncc(CNc2cccc(-c3nc4ccccc4[nH]3)c2)c1 here?
A: inconclusive: 35.5 µM [inhibitor, single point]

Q: How did the Potency turn out when O=c1c(Cc2ccc(F)cc2)c(O)ccn1CCc1ccccn1 was run?
A: inactive

Q: Which Potency does the source give for COc1cc(NC(=O)c2ccc(-n3cnc4cccnc43)cc2)cc(OC)c1 here?
A: inactive

Q: Which Potency does the source give for CC(C)c1ccc(Nc2c(-c3ccco3)nc3ccccn23)cc1 here?
A: inconclusive: 17.8 µM [inhibitor, single point]

Q: With CCCCCC(=O)Nc1ccc(Cl)cn1 as the compound, how does the activity, negative = inhibition read?
A: inconclusive: -63.1% [inhibitor] [at 0.0925 µM]

Q: With COc1ccc(/C=C/C(=O)Nc2ccc3nc(N4CCCCC4)cc(C)c3c2)cc1OC as the compound, how does the Potency read?
A: inconclusive: 25.1 µM [inhibitor, single point]

Q: How did the Potency turn out when CC(C(=O)N1CCCc2c1c(=O)oc1ccc(O)cc21)N1CCc2ccccc2C1 (configuration not stated) was run?
A: inconclusive: 89.1 µM [inhibitor, single point]

Q: With O=S(=O)(c1ccccc1)n1nc(-c2ccccc2)nc1NCc1ccco1 as the compound, how does the Potency read?
A: inconclusive: 44.7 µM [inhibitor, partial curve, poor fit]

Q: CCOC(=O)c1c(/N=C/N(C)C)sc(C)c1C was tested. Which Potency did it give?
A: inconclusive: 79.4 µM [inhibitor, single point]

Q: With C[C@H]1CCC(=O)N([C@H](COc2ccccc2)Cc2ccccc2)CC1 as the compound, how does the Potency read?
A: active: 31.6 µM

Q: For O=C(COC(=O)c1cc(S(=O)(=O)N2CCOCC2)ccc1F)Nc1ccc(Cl)cn1, which Potency is on record?
A: inconclusive: 15.8 µM [inhibitor, single point]

Q: How did the Potency turn out when Cc1ccc(Nc2c(-c3ccccn3)nc3ccc(C)cn23)cc1 was run?
A: inconclusive: 79.4 µM [inhibitor, single point]

Q: Cc1ccc(N=Nc2c(N)n(-c3ccccc3)[nH]c2=O)cc1 was tested. Which Potency did it give?
A: inconclusive: 31.6 µM [inhibitor, full curve, poor fit]

Q: For COc1ccc(C(=O)CSc2nnc(C3CC3)n2N)cc1, which Potency is on record?
A: inconclusive: 89.1 µM [inhibitor, single point]

Q: How did the activity, negative = inhibition turn out when C=C(C)CN(CC)C(=O)CC1C(=O)NCCN1CC(C)(C)C (configuration not stated) was run?
A: inconclusive: -73.2% [inhibitor]

Q: With CCC1Oc2ccc(C)cc2N(CC(=O)NCCN2CCOCC2)C1=O (configuration not stated) as the compound, how does the Potency read?
A: inactive

Q: With CCN1CCCC1CNC(=O)C(=O)Nc1cccc(OC)c1 (configuration not stated) as the compound, how does the Potency read?
A: inconclusive: 39.8 µM [inhibitor, full curve]

Q: With O=C(Nc1ccc(Cl)cc1)c1ccc2c(c1)N(Cc1ccccc1)CCS2 as the compound, how does the Potency read?
A: inactive

Q: How did the Potency turn out when CC(C)c1ccc(NC(=O)CN2C(=O)C3(SCC(=O)N3c3ccc(F)cc3)c3ccccc32)cc1 (configuration not stated) was run?
A: inactive

Q: How did the activity, negative = inhibition turn out when Cc1oc(-c2cccs2)nc1CN1CCN(CCC(C)C)C(CCO)C1 (configuration not stated) was run?
A: inactive: -10.3% [at 12.7 µM]

Q: With COC(=O)c1ccc(CSc2nc3ccccc3c(=O)n2C)o1 as the compound, how does the Potency read?
A: inconclusive: 79.4 µM [inhibitor, single point]

Q: For CC1=C(C(=O)Nc2ccccn2)C(c2ccc(Cl)cc2Cl)NC(=S)N1 (configuration not stated), which Potency is on record?
A: inconclusive: 44.7 µM [inhibitor, partial curve, poor fit]
